Where “and” joins values, the source holds several entries; their conditions need not be identical. Equal values may be shown once. The campaign covered roughly 48,000 compounds. About 1,200 (2.5%) were called active. Roughly 2% stayed inconclusive and do not appear here.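 How the source made its calls: active means activation of at least 60% and not above a set upper limit (about 1 call in 100 departs from these limits); inconclusive means activation of 40% to 60%, or above that upper limit; inactive means activation under 40%.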 Some of the results follow.
These compounds were tested against Probable G-protein coupled receptor 32 (Homo sapiens) (UniProt O75388) (assay: qHTS for Agonists of Human Resolvin D1 Receptor DRV1). Conditions: CHO-K1 GPR32 beta-arrestin PathHunter luminescence, 90 min; at 76.9 µM; hits give high values; zero percent set by DMSO-only wells.
Chain of UniProt O75388 (O75388 whole entry, looked up): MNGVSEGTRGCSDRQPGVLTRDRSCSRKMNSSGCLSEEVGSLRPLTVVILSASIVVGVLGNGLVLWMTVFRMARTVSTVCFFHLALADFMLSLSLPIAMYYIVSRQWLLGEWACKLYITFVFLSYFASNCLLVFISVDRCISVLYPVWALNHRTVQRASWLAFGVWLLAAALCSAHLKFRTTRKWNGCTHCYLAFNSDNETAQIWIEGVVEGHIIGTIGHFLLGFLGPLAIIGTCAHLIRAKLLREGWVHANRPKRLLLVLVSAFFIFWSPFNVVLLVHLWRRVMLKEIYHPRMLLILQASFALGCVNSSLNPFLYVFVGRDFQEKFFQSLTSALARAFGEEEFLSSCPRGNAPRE
How it was run: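 PathHunter beta-arrestin recruitment in CHO-K1 cells stably expressing ProLink-tagged GPR32. Cells were exposed to compound for 90 min at 37 C, then chemiluminescence was read after 1 h detection at ambient temperature; DMSO served as basal control.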
With CCN(C(=O)c1sc2nc3n(c(=O)c2c1C)CCCCC3)c1ccc(OC)cc1 the activation was inactive: -4.41%. In the case of CCN(CC)CCCNc1sc(S(=O)(=O)c2ccccc2)nc1S(=O)(=O)c1ccc(Cl)cc1, the activation is reported as inactive: -22.1%. For CCOC(=O)c1c(C)[nH]c(CCC(=O)NC(C)c2ccccc2)c1C (configuration not stated), the activation was inactive: -8.82%. With COc1ccc(C)cc1NC(=O)NC(C)c1c(-n2cccc2)sc(C)c1C (configuration not stated) the activation was inactive: -20.7%. With Cc1ccc(Cl)cc1NC(=O)Cn1c(=O)n(CCC(=O)NCc2ccc3c(c2)OCO3)c(=O)c2sccc21 the activation was inactive: -16.5%. With COC(=O)C(NC(=O)CCc1c(C)nc2c(-c3ccccc3)c(C)nn2c1C)C(C)C (configuration not stated) the activation was inactive: 12.3%. For CCCC(=O)Nc1nnc(S(=O)(=O)N2CCCCCC2)s1, the activation was inactive: -57.1%. COc1ccc(C2C(C(=O)Nc3ccccc3)=C(C)Nc3nc(SCC(=O)c4ccc(C)cc4)nn32)cc1 (configuration not stated) was tested, and the activation was inactive: -6.86%. With CC1=C(c2ccc(F)cc2)S(=O)(=O)N=C1N1CCC(C(=O)NCCc2ccccc2C)CC1 the activation was inactive: -22.9%. In the case of CC(C)Cc1ccc(S(=O)(=O)N2CCN(Cc3noc(CCC(=O)N4CCCCC4)n3)CC2)cc1, the activation is reported as inactive: -19.3%. Cc1cc(C)nc(-n2nc(C)c3c2NC(=O)CC3c2cccc(O)c2)n1 (configuration not stated) was tested, and the activation was inactive: -5.32%. For CCOc1cc2c(cc1OCC)C(CC(=O)O)N(C(=O)Nc1ccccc1C(F)(F)F)CC2 (configuration not stated), the activation was inactive: -2.62%. In the case of Cc1cc2nn(-c3ccc(F)cc3)nc2cc1NC(=O)c1cccc2c(Cl)cccc12, the activation is reported as inactive: 6.22%. CCOC(=O)c1ccc2c(c1)N(Cc1ccc(F)cc1Cl)C(=O)c1ccccc1S2(=O)=O was tested, and the activation was inactive: -19.1%. COc1ccc(-n2cc(-c3ccccc3)c3c(Nc4ccc(OC)c(OC)c4)ncnc32)cc1 was tested, and the activation was inactive: -9.83%. CCn1c(C)c(C)c2cc(C(=O)NCc3ccc(F)cc3)ccc21 was tested, and the activation was inactive: -14.7%. With COc1cc(OC)c(NC(=O)Nc2cccc(OCc3cc(=O)n4ccccc4n3)c2)cc1Cl the activation was inactive: -9.2%. With COc1ccccc1N1CCN(S(=O)(=O)c2c(C)sc3ncn(CC(=O)N(C)c4ccc(Cl)cc4)c(=O)c23)CC1 the activation was inactive: -10.7%. For CCNC(=O)c1c(NC(=O)Cc2coc3cc(C)cc(C)c23)sc2c1CCCC2, the activation was inactive: 8.32%. In the case of CC1CCN(CCCC(=O)c2ccc(F)cc2)CC1, the activation is reported as inactive: -5.47%. In the case of Oc1c(C(c2ccccc2F)N2CCN(Cc3ccccc3)CC2)sc2nc(-c3ccco3)nn12 (configuration not stated), the activation is reported as inactive: 21.9%. Cc1c(C(=O)N2CCC(c3nc4ccccc4s3)CC2)oc2ccc(Cl)cc12 was tested, and the activation was inactive: -20.4%. For Cc1cc(C)c2c(=O)nc(SCc3ccccc3C)n(C3CC3)c2n1, the activation was inactive: -16.1%. In the case of Nc1ccc(S(N)(=O)=O)cc1, the activation is reported as inactive: -3.54%. In the case of Cc1ccc(NC(=O)c2cc(-c3ccc(Br)s3)nc3ccccc23)cc1F, the activation is reported as inactive: -6.76%. Cc1ccc(-n2ncc3c(Nc4cccc(C)c4C)ncnc32)cc1 was tested, and the activation was inactive: -15.2%. CCOc1ccccc1N(C)C(=O)C1CCCN(c2ncnc3c2nc2n3CCCCC2)C1 (configuration not stated) was tested, and the activation was inactive: 15.5%. In the case of Cc1ccc2c(CC(=O)Nc3ccc(S(=O)(=O)N4CCCCC4)cc3)coc2c1, the activation is reported as inactive: -18.2%. In the case of COc1ccc(C(=O)OC2=C(C(=O)c3ccccc3)N(C)S(=O)(=O)c3ccccc32)cc1OC, the activation is reported as inactive: -9.94%. For COCCn1c(=NC(=O)c2ccc3c(c2)OCCO3)sc2cc(C(=O)OC)ccc21, the activation was inactive: 1.49%. In the case of CCN1CCC[C@H]1CNC(=O)c1cc(S(N)(=O)=O)ccc1OC, the activation is reported as inactive: 2.07% and inactive: -0.692%. For CCOc1ccc(CNC(=O)Cn2cc3c(n2)-c2c(oc(C(=O)N4CCOCC4)c2C)CC3)cc1, the activation was inactive: -10%. Cc1ccc(CN2C(=O)C3(c4ccccc42)N(c2cccc(F)c2)C(=O)CS3(=O)=O)cc1 (configuration not stated) was tested, and the activation was inactive: -26.7%. In the case of COc1ccccc1N1CCN(CCCNC(=O)c2cnn(-c3cccc(Cl)c3)c2C2CCN(C(=O)OC(C)(C)C)CC2)CC1, the activation is reported as inactive: -16.1%. For COc1cc(NC(=O)NC(C)c2c(-n3cccc3)sc3c2CCCC3)cc(OC)c1OC (configuration not stated), the activation was inactive: -14.5%. In the case of CCOC(=O)c1c(C)c(-c2ccccc2)n(CC(=O)Nc2cc(C)ccc2OC)c1C, the activation is reported as inactive: -0.284%. In the case of Cc1ccccc1CN1CCC(CNc2ncnc3onc(-c4ccc(F)cc4)c23)CC1, the activation is reported as inactive: -2.76%. In the case of CCCCN(CC)CCNC(=O)c1cn(C)c(=O)c2c1c1ccccc1n2C, the activation is reported as inactive: -2.3%. With Cc1ccc(OCc2ccc(-c3nc(C#N)c(NCc4cccnc4)o3)o2)cc1 the activation was inactive: 12.6%. With CCc1cccc(-n2nnc(-c3nsc(NC(=O)c4cccs4)n3)c2C)c1 the activation was inactive: -11.6%. For CC(=O)Nc1ccc2nc(-c3cc(C)ccc3C)[nH]c2c1, the activation was inactive: 34.4%. For COc1ccc(C2=CC(c3ccccc3Cl)n3nc(-c4ccc(Cl)cc4)nc3N2)cc1 (configuration not stated), the activation was inactive: -0.125%. In the case of COc1ccccc1CNC(=O)CCS(=O)(=O)c1ccc2c(c1)CCN2C(C)=O, the activation is reported as inactive: -4.79%. For Cc1nc2nc(NCc3ccc(Cl)cc3)[nH]n2c(=O)c1Cc1ccccc1, the activation was inactive: 12.3%. O=c1cc(O)cc(/C=C/c2ccc(O)c(O)c2)o1 was tested, and the activation was inactive: -8.65%. With COC(=O)c1scc(-c2ccc(C)cc2)c1S(=O)(=O)N1CCN(c2ccc(C(C)=O)cc2)CC1 the activation was inactive: -11.9%. Cc1ccc(Cl)cc1N1CCN(C(=O)Cn2cnc3sc(C)c(S(=O)(=O)N4CCC(C)CC4)c3c2=O)CC1 was tested, and the activation was inactive: -9.03%. CC1CCc2c(sc(NC(=O)C3c4ccccc4Oc4ccccc43)c2C#N)C1 (configuration not stated) was tested, and the activation was inactive: -6.49%. With Cc1ccc(-n2c(=O)c3c(C)c(C)sc3n(CC(=O)NCc3ccccc3)c2=O)cc1C the activation was inactive: -2.76%. CCCn1c(CCC(=O)Nc2ccc(OCC)cc2)nc2cccnc21 was tested, and the activation was inactive: -2.25%. For CCOC(=O)c1c(C)oc2nc(C)nc(NCc3ccc(F)cc3)c12, the activation was inactive: 6.41%. With COc1ccc(C(=O)Nc2nnc(SCc3cc(=O)c4cc(C)cc(C)c4[nH]3)s2)cc1 the activation was inactive: -5.19%. For CCOc1ccc(CCNC(=O)CCCn2c(=O)c3cccn3c3ccccc32)cc1, the activation was inactive: -14.5%. In the case of Cc1ccc(CNC(=O)CCCn2c(=O)c3ccccc3n(CC(=O)Nc3ccc(C)c(C)c3)c2=O)cc1, the activation is reported as inactive: -3.15%. In the case of Cc1ccc(Cl)cc1NC(=O)C(C)n1nc(-c2ccccc2)ccc1=O (configuration not stated), the activation is reported as inactive: -0.748%. In the case of Cc1ccc(-n2ncc3c(NCCC4=CCCCC4)ncnc32)cc1, the activation is reported as inactive: 26.8%. With COC(=O)NCC(c1cccnc1)N1CCN(c2ccc(F)cc2)CC1 (configuration not stated) the activation was inactive: 5.55%. In the case of Cn1c(=O)c2c(nc(SCC(=O)Nc3ccccc3F)n2Cc2ccc(Cl)cc2)n(C)c1=O, the activation is reported as inactive: 3.9%. For CCc1ccccc1NC(=O)CCNS(=O)(=O)c1ccc2c(c1)CCN2C(=O)C1CC1, the activation was inactive: 29.6%. CCN(c1ccccc1)S(=O)(=O)c1ccc(NC(=O)c2nc(SC(C)C)ncc2Cl)cc1 was tested, and the activation was inactive: -2.77%. With Cc1c(O)cccc1C(=O)N[C@@H](CSc1ccccc1)[C@H](O)CN1C[C@H]2CCCC[C@H]2C[C@H]1C(=O)NC(C)(C)C the activation was inactive: -24.9%. In the case of CCOC(=O)c1cnc2ccc(OCC)cc2c1Nc1ccc(OCc2ccccc2Cl)cc1, the activation is reported as inactive: -4.06%. With Cc1cccc(CNC(=O)CN2C(=O)CSc3c2c(C)nn3-c2ccccc2)c1 the activation was inactive: 22.4%. For COc1cc(C(CC(=O)Nc2ncccc2C)N2Cc3ccccc3C2=O)cc(OC)c1OC (configuration not stated), the activation was inactive: 1.16%. In the case of COc1ccc(-c2nc3cc(NC(=O)c4ccc(C)cc4)ccc3o2)cc1Cl, the activation is reported as inactive: 25.7%. With CC(=O)c1cc(-c2ccc(F)cc2)n(CCC(=O)Nc2nc3ccc(C)cc3s2)c1C the activation was inactive: -29.6%. In the case of CCOc1ccc(Br)cc1C1NC(=O)c2c(sc3c2CCN(C)C3)N1 (configuration not stated), the activation is reported as inactive: -24.7%. In the case of Cc1ccc(C(=O)N2CCC(C)CC2)cc1NC(=O)c1nsc2ccccc12, the activation is reported as inactive: -16.6%. With O=C(OCc1cc(=O)n2nc(C3CC3)sc2n1)c1ccc(NC(=O)c2ccccc2F)cc1 the activation was inactive: -6.73%. With COCCCn1c(=N)c(C(=O)NC2CCCCC2)cc2c(=O)n3cc(C)ccc3nc21 the activation was inactive: 11.2%. In the case of COc1ccc(CCNc2ncnc3onc(C)c23)c(OC)c1, the activation is reported as active: 75.3%. In the case of CC1CCN(S(=O)(=O)c2ccc3nc(N4CCN(c5ccc(F)cc5)CC4)ccc3c2)CC1, the activation is reported as inactive: -4.01%. In the case of CCc1ccccc1NC(=O)c1ccc(F)c(S(=O)(=O)N2CCN(c3cccc(Cl)c3)CC2)c1, the activation is reported as inactive: -10.7%. Cc1ccc(S(=O)(=O)c2cc3cc(C(=O)Nc4ccc(C)cc4C)ccc3oc2=O)cc1 was tested, and the activation was inactive: 12.8%. In the case of CC1CCCCN1CCCNC(=O)Cn1ncc2c3ccccc3n(C)c2c1=O (configuration not stated), the activation is reported as inactive: -4.71%. CCOc1ccc(NC(=O)CSc2oc(-c3ccc(C)cc3)nc2S(=O)(=O)c2ccc(C)cc2)cc1 was tested, and the activation was inactive: -6.07%. For COc1ccc(-c2cc(C(F)(F)F)nc(NCc3ccc(F)cc3)n2)cc1, the activation was inactive: -5.41%. COc1cccc(C(=O)N(Cc2ccc(C)o2)C2CCS(=O)(=O)C2)c1 (configuration not stated) was tested, and the activation was inactive: -14.6%. O=C(COCc1cc(-c2cccs2)on1)Nc1cc(C(F)(F)F)ccc1Cl was tested, and the activation was inactive: -22.4%. CC(C)OCCCNC(=O)CCCN1C(=O)CCn2nc(-c3cccn3C)cc21 was tested, and the activation was inactive: -2.05%. In the case of Cc1ccc(O)c(-c2n[nH]c3c2C(c2ccc(F)cc2)N(Cc2ccco2)C3=O)c1 (configuration not stated), the activation is reported as inactive: 31.4%. In the case of O=C(Nc1ccc(Cl)cc1)c1cc(S(=O)(=O)NC2CCCCCC2)ccc1F, the activation is reported as inactive: -8.74%.

From PubChem BioAssay AID1346428 (National Center for Advancing Translational Sciences (NCATS), 2018)
Further: 0% is about no effect.
